Results as given in PubChem BioAssay AID743279 (National Center for Advancing Translational Sciences (NCATS), 2014).
Among all 360,000 compounds or so, about 17,000 (4.7%) were called active. This list was built around the results that the source calls inconclusive (neither active nor inactive); the mix of calls is not that of the screen. Cut-off read from the data, not from the text of the source: active = activity change below about -50%; inconclusive = mostly about -30% to -49%; inactive = weaker than that.

Assay: qHTS for Inhibitors of Inflammasome Signaling: IL-1-beta AlphaLISA Primary Screen
Conditions: THP-1 LPS/ATP IL-1B secretion, 16 h; at 57.5 µM, hits give low values
Procedure, shortened: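 Secreted IL-1B measured by AlphaLISA bead assay after 16 h compound exposure of THP-1 cells; compounds (final up to 57.5 uM) added 1 h before LPS (250 ng/mL) and ATP (1.25 mM) stimulation; lower signal means less secretion.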
% is set by controls: 0 for no effect and ±100 for the full control effect.

Row | Compound | activity change
1 | Clc1cccc(Cl)c1CN1CCN(c2ncccn2)CC1 | inactive: 37.8%
2 | CC(C)CCNC(=O)C(c1ccc(O)cc1)N(Cc1cccs1)C(=O)C1COc2ccccc2O1 (stereo not drawn) | active: -73.2%
3 | C=CCc1ccccc1OCC(O)CNC (stereo not drawn) | inactive: 23.2%
4 | CCOc1ccccc1NC(=O)CSc1nnc(CNC(=O)c2cc(OC)c(OC)c(OC)c2)o1 | inactive: 26%
5 | CCCc1n[nH]c2c1/C(=N/O)CC(c1ccccc1)C2 (stereo not drawn) | inconclusive: -40.6%
6 | C=CC[C@@H](CC(=O)N(CCO)Cc1ccccc1)C(=O)N[C@H](COC(=O)[C@H](CC=C)CC(=O)OC(C)(C)C)Cc1c[nH]c2ccccc12 | active: -58.9%
7 | COCCNC(=O)c1cccc(OC2CCN(Cc3cccc(SC)c3)CC2)c1 | inconclusive: -42.8%
8 | Cc1c(O)c(CN2CCCCC2)cc2c1oc(=O)c1ccccc12 | inconclusive: -47.2%
9 | CCOc1ccc(C(C(=O)NC2CCCC2)N(C(=O)c2snc(C(N)=O)c2N)C2CCCC2)cc1 (stereo not drawn) | inconclusive: -39.1%
10 | CN(C)CCN(Cc1ccccc1)C(=O)C1CCN(c2ncnc3c2nc2n3CCCCC2)CC1 | inconclusive: -34.6%
11 | CN(C(=S)NC(=O)C1CC1)c1ccc(O)cc1 | inactive: 60.2%
12 | Cc1cc(N2CCCCC2)nc(NCc2ccccc2)n1 | active: -99%
13 | CC(C)(C)NC(=O)CN(C(=O)c1snc(C(=O)NC2CCCCC2)c1N)c1ccccc1F | inconclusive: -33.6%
14 | Cc1ccc(OCc2cc(C(=O)N(C)Cc3cc(C4CC4)n[nH]3)no2)cc1C | inactive: 2.58%
15 | CSc1ccc(CN2CCC(C)(Oc3ccc(-n4ccnc4)cc3)C2)cc1 (stereo not drawn) | inconclusive: -32.2%
16 | COc1cccc(C(C)=C2SC(=S)NC2=O)c1 | inactive: 2.02%
17 | CCOC(=O)c1sc(NN=C(C(=O)OC)C(=O)OC)c(C(=O)OCC)c1C | inactive: -13.1%
18 | COc1cc2c(cc1[N+](=O)[O-])-c1ccc([N+](=O)[O-])cc1C2=NO | inconclusive: -34.7%
19 | Cc1ccc2cc(/C=N/NC(=O)c3ccc(F)cc3)c(Cl)nc2c1 | inactive: 0.631%
20 | CSc1ccc(C(c2c(C)[nH][nH]c2=O)c2c(C)[nH][nH]c2=O)cc1 | inconclusive: -36%
21 | CC1CCCCN1S(=O)(=O)c1ccc(S(=O)(=O)N2CCN(C)CC2)cc1 (stereo not drawn) | inactive: 11.1%
22 | CC[C@@H](C)[C@@H]1CN([C@@H](C)CN2CCC[C@H]2CN2C(N)=NC[C@H]2CC(C)C)C(=N)N1CCCC1CCCC1 | inconclusive: -46.7%
23 | N#CC1=C(N)NC(=S)C(C(N)=O)C1c1ccccc1F (stereo not drawn) | inconclusive: -44.6%
